Reference: US20240158515A1, “ANTI-FGFR3 ANTIBODIES AND ANTIGEN-BINDING FRAGMENTS AND METHODS OF USE THEREOF” (Regeneron Pharmaceuticals, Inc., priority 2022, published 2024)

Columns and labels:
[1] = tested on: CD73 protein level in Fadu S249C tumors; experiment: CD73 expression in Fadu S249C tumors in vivo, Western blot; design: species or system SCID mice; settings: FGFR3 mAb 15 mg/kg one intraperitoneal dose; AZD4547 25 mg/kg daily gavage; FIG. 11A-11B
Description: To test the effect of anti-FGFR3 inhibitory antibody or tyrosine kinase inhibitor (AZD4547) on CD73 expression in vivo, tumor cells (5×10^6 UMUC14, 3×10^6 Fadu EV or S249C, in 50% Matrigel) were implanted subcutaneously into the right flank of 6 to 8-week-old female SCID mice (Jackson Laboratory). Once tumors were established (˜200 mm^3 in volume), mice were randomized into treatment groups (n=5-6 mice per group) and injected intraperitoneally once with anti-FGFR3 antibodies (15 mg/kg) or isotype control. Tyrosine kinase inhibitor AZD4547 (25 mg/kg) was administered once daily by oral gavage for 3 days. Tumors were collected 4 days post treatment initiation. Tumors were collected, snap frozen and lysed in RIPA buffer. Equal amount of tumor lysates were analyzed by SDS-PAGE and blotted with anti-CD73 and anti-FGFR3 antibodies as described above. Membranes were developed with SuperSignal West Pico or Femto substrate and luminescence images were captured with a C300 imager (Azure Biosystems). Intensity of each CD73 and actin band was quantitated using Image J (NIH), and the ratio of CD73/actin for each sample were graphed using Prism Graphpad.

[2] = tested on: CD73 protein level in UMUC14 cells; experiment: CD73 expression in UMUC14 cells in vitro, Western blot; type: cell-based; settings: 1 nM, 10 nM, 100 nM, 48 hrs, FIG. 6
Description: To investigate the effect of anti-FGFR3 antibody or tyrosine kinase inhibitor (AZD4547; commercially available) on CD73 expression, UMUC14 bladder cancer cells were seeded in 6 well tissue culture plate (Corning) in complete medium (MEM medium with 10% FBS, 1% Non-Essential Amino Acids, Pen/Strep) and cultured overnight at 37° C. 5% CO2. Cells were then treated with antibodies or inhibitors at indicated concentration (100 nM, 10 nM or 1 nM) for 48 hrs. Cells were washed with pre-chilled PBS and collected in lysis buffer containing protease and phosphatase inhibitors. Equal amount of cell lysates were analyzed by SDS-PAGE. Blots were blocked in 0.5% Tween 20 in Tris buffered saline (TBS) containing 5% non-fat dry milk followed by overnight incubation with anti-CD73 primary antibody (Cell Signaling Technology). After washing 3× with TBST and incubation with secondary antibody, membranes were developed with SuperSignal West Pico or Femto substrate and luminescence images were captured with a C300 imager (Azure Biosystems).

[3] = tested on: BAF3/FGFR3b_S249C cells (human FGFR3b S249C); experiment: BaF3 proliferation assay (CellTiter-Glo), FGFR3b S249C; type: cell-based, murine; settings: 1 nM FGF1 + 5 ug/ml heparin
[4] = tested on: phosphorylation of MAPK in BaF3/FGFR3b cells (wild-type human FGFR3b); experiment: FGF1/heparin induced MAPK phosphorylation, Western blot; type: cell-based, murine; settings: 100 nM antibody 3 hrs, then FGF1 and heparin 10 min, FIG. 3
Description: Assays evaluating the following were performed: (1) Inhibition of FGFR3 S249C dimerization using bladder cancer cell line UMUC14 with endogenous FGFR3 S249C mutation; and (2) Inhibition of FGF1/heparin induced downstream signaling in BaF3 cell expressing wild-type FGFR3.
To test the effects of anti-FGFR3 antibody on ligand-induced signaling, an engineered IL-3-dependent Ba/F3 murine hematopoietic cell line genetically modified to stably express wild-type human fibroblast growth factor receptor 3b was used. Engineered BaF3/FGFR3b cells were incubated overnight in starvation medium (RPM11640+Penicillin/Streptomycin/L-Glutamine+1 ng/mL mouse IL-3). After starvation, cells were either untreated or pretreated with 100 nM antibodies for 3 hrs followed by ligand (human 100 ng/ml FGF1 and 10 mg/ml heparin) stimulation for 10 min at 37° C. Cells were lysed in lysis buffer and equal amount of cell lysates were analyzed by SDS-PAGE. Blots were incubated with pMAPK or MAPK antibody overnight followed by incubation with anti-rabbit HRP 2nd antibody. Membranes were developed with SuperSignal West Pico or Femto substrate and luminescence images were captured with a C300 imager (Azure Biosystems).

[5] = target: T1, human FGFR3b (hFGFR3b.mmH, REGN3152) (Homo sapiens, UniProt P22607); experiment: Biacore SPR binding kinetics, monomeric human FGFR3b to captured antibodies; settings: 25° C.
T1 construct: REGN3152 (human FGFR3b expressed with a C-terminal myc-myc-hexahistidine tag)
T1 sequence (P22607 with tags, fused parts or gaps isoform P22607-2): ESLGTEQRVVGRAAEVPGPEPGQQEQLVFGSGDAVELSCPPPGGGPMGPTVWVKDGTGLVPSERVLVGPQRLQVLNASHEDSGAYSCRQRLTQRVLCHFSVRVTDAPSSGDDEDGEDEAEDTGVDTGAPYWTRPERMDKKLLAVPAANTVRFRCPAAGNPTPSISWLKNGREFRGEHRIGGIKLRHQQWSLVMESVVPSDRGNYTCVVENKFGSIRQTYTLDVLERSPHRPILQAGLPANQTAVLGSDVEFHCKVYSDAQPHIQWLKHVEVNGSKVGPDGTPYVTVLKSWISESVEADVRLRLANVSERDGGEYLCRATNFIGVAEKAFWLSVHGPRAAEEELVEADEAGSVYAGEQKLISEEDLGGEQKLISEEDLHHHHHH
Description: Biacore binding kinetics of anti-FGFR3 antibodies, in an antibody capture format, to monomeric human FGFR3b, cynomolgus FGFR3b, murine FGFR3b, human FGFR3c, and dimeric human FGFR3b ecto domain recombinant proteins at 25° C. were analyzed.
Equilibrium dissociation constants (KD values) for human FGFR3b expressed with a C-terminal myc-myc-hexahistidine tag (hFGFR3b.mmH, REGN3152) or cynomolgus FGFR3b expressed with a C-terminal myc-myc-hexahistidine tag (mfFGFR3b.mmH, REGN3521), or murine FGFR3b expressed with a C-terminal myc-myc-hexahistidine tag (mFGFR3b.mmH, REGN3215) or human FGFR3c expressed with a C-terminal myc-myc-hexahistidine tag (hFGFR3c.mmH, REGN3155) or human FGFR3b expressed with an C-terminal murine Fc tag (hFGFR3b.mFc, REGN3153) binding to purified anti-FGFR3 antibodies were determined using a real-time surface plasmon resonance biosensor technology using a Biacore 3000 or Biacore 4000 instrument. The CM5 Biacore sensor surface was derivatized by amine coupling with a monoclonal mouse anti-human Fc monoclonal antibody (REGN2567). All Biacore binding studies were performed in a buffer composed of 0.01M HEPES pH 7.4, 0.15 M NaCl, 3 mM EDTA, 0.05% v/v Surfactant P20 (HBS-EP running buffer). Different concentrations of monomeric proteins prepared in HBS-EP running buffer (ranging from 90 nM to 3.33 nM in 3-fold serial dilutions) or dimeric protein (hFGFR3b.mFc, REGN3153) prepared in HBS-EP running buffer (ranging from 30 to 10 nM in 3-fold serial dilution) were injected over the captured anti-FGFR3 antibodies at a flow rate of 30 μL/minute. Antibody-reagent association was monitored for 5 minutes while dissociation in HBS-EP running buffer was monitored for 10 minutes. At the end of each cycle, the anti-FGFR3 antibody capture surface was regenerated using a 10 sec injection of 20 mM phosphoric acid. All binding kinetics experiments were performed at 25° C.
The specific SPR-Biacore sensorgrams were obtained by a double referencing procedure. The double referencing was performed by first subtracting the signal of each injection over a reference surface (anti-hFc) from the signal over the experimental surface (anti-hFc-captured anti-FGFR3 antibodies) thereby removing contributions from refractive index changes. In addition, running buffer injections were performed to allow subtraction of the signal changes resulting from the dissociation of captured antibodies from the coupled anti-hFc surface. Kinetic association (ka) and dissociation (kd) rate constants were determined by fitting the real-time sensorgrams to a 1:1 binding model using Scrubber v2.0c curve fitting software. Binding dissociation equilibrium constants (KD) and dissociative half-lives (t½) were calculated from the kinetic rate constants as: […]

B1: H4H30063P: anti-FGFR3 antibody, hIgG4^P; HCVR/LCVR SEQ ID NOs: 2 & 10; HC/LC SEQ ID NOs: 18 & 20 (antibody)
heavy: QVQLQESGPGLVKPSETLSLTCTVSGDSINSYFWSWIRQLPGKELEWIGHIYSSGSTRYNPSLQSRVTISIDTSKNQFSLKLSSVTAADTAVYYCARGASAVDYWGQGTLVTVSSASTKGPSVFPLAPCSRSTSESTAALGCLVKDYFPEPVTVSWNSGALTSGVHTFPAVLQSSGLYSLSSVVTVPSSSLGTKTYTCNVDHKPSNTKVDKRV[sequence of human IgG4 Fc with S228P (EU numbers) not given]
light: EIVLTQSPGTLSLSPGERATLSCRTSQSISSGYLAWYQQKPGQAPRLLIYGASRRATGIPDRFSGSGSGTDFTLTISRLEPEDFVVYYCQQYGSSPYTFGQGTKLEIKRTVAAPSVFIFPPSDEQLKSGTASVVCLLNNFYPREAKVQWKVDNALQSGNSQESVTEQDSKDSTYSLSSTLTLSKADYEKHKVYACEVTHQGLSSPVTKSFNRGEC
CD73 expression in Fadu S249C tumors in vivo (in words) [1]: decreased expression of CD73 relative to mice treated with control | CD73 expression in UMUC14 cells in vitro (in words) [2]: dose dependent downregulation of CD73 expression | inhibition of ligand-enhanced proliferation, BaF3/FGFR3_S249C (in words) [3]: inhibited to similar maximum levels | FGF1/Hep stimulation-dependent phosphorylation of MAPK (in words) [4]: decreased FGF1/Hep stimulation-dependent phosphorylation of MAPK | ka [5]: 172000 M⁻¹ s⁻¹ | kd [5]: 3.83e-05 s⁻¹
